The whole screen tested about 150,000 compounds, of which about 6,500 (4.3%) were called active. Inconclusive means that the source gave no clear call. Such entries were picked first, then a sample of the others. The call rests on the fitted dose curve; in most records, active means well fitted inhibition curve with a large enough effect (not every such curve was filed as active); inconclusive means small, poorly fitted or top-dose-only effect, or another doubt; inactive means no such curve, though single readings can be large or run the other way. Potencies beside an inconclusive call are fits to weak or partial responses and may not hold up.
These compounds were tested against 15-hydroxyprostaglandin dehydrogenase [NAD(+)] (Homo sapiens) (UniProt P15428) (assay: qHTS Assay for Inhibitors of HPGD (15-Hydroxyprostaglandin Dehydrogenase)). Conditions: purified HPGD, NADH fluorescence kinetic, PGE2 substrate; activity change, negative = inhibition: active compounds read low.
Procedure, shortened: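 20 nM HPGD preincubated 15 min at room temperature with compound in 50 mM Tris-HCl pH 8, 0.01% Tween 20. Started with 1 mM NAD+ and 30 uM prostaglandin E2; NADH fluorescence (360/450 nm) read 5 times over 30-s intervals, last minus first.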
On the % scale 0 is the no-effect control and ±100 the full control effect; potency means the concentration at half of the fitted maximal effect; tags describe the fitted curve by direction and shape.

UniProt P15428, sequence (P15428 whole entry, looked up): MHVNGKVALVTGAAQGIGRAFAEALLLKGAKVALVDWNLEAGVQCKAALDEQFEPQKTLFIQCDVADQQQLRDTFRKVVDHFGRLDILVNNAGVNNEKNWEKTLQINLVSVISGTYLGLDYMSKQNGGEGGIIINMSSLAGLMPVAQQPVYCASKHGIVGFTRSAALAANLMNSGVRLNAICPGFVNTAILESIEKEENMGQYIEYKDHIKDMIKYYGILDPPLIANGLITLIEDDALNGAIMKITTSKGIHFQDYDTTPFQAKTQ

Potency, inconclusive:
COc1ccc(-c2nc(CSCC(=O)NCc3ccco3)c(C)o2)cc1 31.6 µM [inhibitor, single point], COc1ccc(S(=O)(=O)N(C(=O)c2ccco2)c2cc3sc(=O)oc3c3ccccc23)cc1 12.6 µM [inhibitor, partial curve], CN1CCc2c(sc3c2c(NCc2ccco2)nc2nnnn23)C1 15.8 µM [inhibitor, partial curve], CCn1nc2cc(C(=O)NCCc3cccs3)ccc2c1OC 28.2 µM [inhibitor, partial curve], Cc1nc2c(C(=O)N3CCN(C)CC3)cnn2c(C)c1Cc1ccc(Cl)cc1 31.6 µM [inhibitor, partial curve], CCOC(=O)C1=C(O)CCn2c1nc1ccccc12 22.4 µM [inhibitor, partial curve], O=C(NN1C(=O)c2ccc3c4c(ccc(c24)C1=O)CC3)c1ccc(Br)cc1 31.6 µM [inhibitor, partial curve], N#Cc1nc(-c2ccco2)oc1NCc1cccnc1 25.1 µM [inhibitor, partial curve, poor fit], COCCn1nc2cc(C(=O)NCC34CC5CC(CC(C5)C3)C4)ccc2c1OC 28.2 µM [inhibitor, partial curve], COc1cc(-c2nnc3sc(-c4cccs4)nn23)cc(OC)c1OC 15.8 µM [inhibitor, partial curve], Cc1cccc(-n2ncc3c(N4CCCc5ccccc54)ncnc32)c1 31.6 µM [inhibitor, partial curve], COc1ccc(OC)c(C(=O)CSc2nnc(-c3cccs3)o2)c1 12.6 µM [inhibitor, partial curve], CC(C)c1ccc(NC(=S)NCc2cccs2)cc1 22.4 µM [inhibitor, single point], CCc1nc(NCC2CCCO2)c(C#N)c2c1COC(C)(C)C2 (configuration not stated) 12.6 µM [inhibitor, partial curve], CCC(=O)NC(=Nc1nc2ccccc2s1)NC(=O)CC 39.8 µM [inhibitor, single point], O=C(Nc1ccc(-c2nc3ccccc3s2)cc1)C1=COCCO1 14.1 µM [inhibitor, partial curve], CCOc1cc2c(C#N)c(N3CCOCC3)nc(N)c2c(N)n1 28.2 µM [inhibitor, partial curve], O=C(COc1ccc(F)cc1)Nc1nnc(-c2ccncc2)s1 20 µM [inhibitor, partial curve], Oc1ccccc1Oc1c(F)c(F)nc(N2CCCC2)c1F 22.4 µM [inhibitor, partial curve, poor fit], COc1ccccc1-n1c(CNC(=O)c2ccc(S(=O)(=O)N3CCOCC3)cc2)n[nH]c1=S 15.8 µM [inhibitor, partial curve], O=C(COc1ccc(F)cc1)Nc1nccs1 17.8 µM [inhibitor, partial curve], CC(=O)Nc1nonc1-c1nc2ccccc2n1Cc1ccccc1 28.2 µM [inhibitor, partial curve], CCOC(=O)c1ccc(Nc2nc(C(=O)OCC)nc3ccccc23)cc1 31.6 µM [inhibitor, partial curve], CCCNC(=O)c1c(N)n(-c2cccc(OC)c2)c2nc3ccccc3nc12 3.16 µM [inhibitor, single point], Clc1ccc(C2=C3CCCCn4c(-c5ccccc5)c[n+](c43)C2)cc1 28.2 µM [inhibitor, partial curve], CCOC(=O)c1c(N)sc(C(N)=O)c1C 25.1 µM [inhibitor, partial curve, poor fit], COc1ccc2nc(SCC(=O)N3CCCCCC3)c(C#N)cc2c1 25.1 µM [inhibitor, partial curve], CCC(=O)N(Cc1cc2c(C)cc(C)cc2[nH]c1=O)C1CCCCC1 14.1 µM [inhibitor, partial curve], COc1cccc(C(=O)Nc2nc(-c3ccc(S(=O)(=O)N4CCOCC4)cc3)cs2)c1 35.5 µM [inhibitor, partial curve], O=C(CSc1nc2ccc(NC(=O)CSc3nnnn3-c3ccccc3)cc2s1)Nc1ccccc1 31.6 µM [inhibitor, partial curve], O=C1NCCc2c1[nH]c1ccccc21 28.2 µM [inhibitor, partial curve], Cc1nc(NC2CCCCC2)c2nc(-c3ccccc3)n(CC3CCN(C)CC3)c2n1 25.1 µM [inhibitor, partial curve, poor fit], CCC1(c2ccc(Cl)cc2)NC(=S)N(c2ccc(C)cc2)N1 (configuration not stated) 39.8 µM [inhibitor, single point], Cc1ccc(NC(=O)c2cc(N3C(=O)C4CC=CCC4C3=O)ccc2N2CCCCC2)cc1 (configuration not stated) 22.4 µM [inhibitor, partial curve], COc1ccccc1CNC(=O)c1nn(-c2ccc(C)cc2)c(=O)c2c1c1ccccc1n2C 28.2 µM [inhibitor, partial curve], COc1ccc(-n2nc(C(=O)NCc3ccco3)c3ccccc3c2=O)cc1 31.6 µM [inhibitor, partial curve]

Potency, active:
N#CCCSc1ccccc1NC(=O)c1ccc(S(=O)(=O)N2CCCC2)cc1 11.2 µM, COc1ccc(/C=C2\C(=O)N(c3c(Cl)cc(Cl)cc3Cl)N=C2NC(=O)c2cccc([N+](=O)[O-])c2)cc1 22.4 µM, N#C/C(=C\c1ccc(OCc2ccc(C(=O)O)cc2)cc1)C(=O)N1CCOCC1 14.1 µM, S=c1[nH]nc(-c2ccncc2)n1/N=C/c1ccccc1 31.6 µM, O=C(CN1C(=O)NC2(CCCCCCC2)C1=O)NCc1ccc2c(c1)OCO2 31.6 µM, O=C(NC1CCCC1)c1ccc(Br)s1 3.55 µM, CCN(CC)C(=O)c1cccc(C)c1 25.1 µM, N#Cc1c(-c2ccccc2)nc(SCC(=O)N(c2ccccc2)c2ccccc2)[nH]c1=O 28.2 µM, Cn1ccnc1Sc1nc2ccccc2nc1NS(=O)(=O)c1ccccc1 22.4 µM, O=C(CNS(=O)(=O)c1ccccc1)NCC(=O)OCc1ccc(C(=O)c2ccccc2)cc1 20 µM, COc1cc(-c2nc3cnccn3c2Nc2ccc3c(c2)OCCO3)ccc1O 22.4 µM, O=C(COc1c(Br)cc(Br)c2cccnc12)N1CCc2ccccc2C1 17.8 µM, O=C(CSc1ccccn1)Nc1ccc2c(c1)oc1ccccc12 25.1 µM, Cc1nc(-c2ccc(C(=O)N3CCOCC3)cc2)cs1 8.91 µM, CCN(CC)C(=O)CSc1nc2ncc(Cl)cc2[nH]1 12.6 µM

Activity change, negative = inhibition, inactive:
COC(=O)c1ccc(C)c(NS(=O)(=O)c2ccc(C)c([N+](=O)[O-])c2)c1 -13.4%, COc1ccc(C2=NN(C(=S)Nc3ccccc3)C(c3ccccc3)C2)cc1 (configuration not stated) -22.6%, O=C(OCc1ccco1)c1ccc(S(=O)(=O)N2CCCCC2)cc1 -16.3%, Cn1c(=O)n(Cc2ccccc2)c(=O)c2c1nc(NCC1CCCO1)n2Cc1ccccc1 (configuration not stated) -6.91%, C/C(Cn1cnc([N+](=O)[O-])n1)=N\NC(=O)c1cccnc1 -6.35%, Cc1nn(C(C)C(=O)NNC(=S)Nc2ccc(Cl)cc2)c(C)c1[N+](=O)[O-] (configuration not stated) -14.2%, COC(=O)Nc1ccc(S(=O)(=O)Nc2ccc(C)cc2)cc1 -3.9%, O=c1c2c3c(sc2nc(NCCO)n1CCc1ccccc1)CCCCC3 -15.6%, CS(=O)(=O)c1ccc2nc(NC(=O)c3ccco3)sc2c1 -21.9%, COC(=O)CCN(c1ccccc1)S(=O)(=O)c1ccc(OC)cc1 -11%, C[C@@]1(C(NC(=O)Cc2ccc(C(F)(F)F)cc2)c2ccc(-c3ccccc3)cc2)C[C@H]1C1CCCCC1 (some centres not stated) 0.734%, COc1ccc(C2C(C(=O)N3CCCCC3)CC(=O)N2c2ccc(OC)cc2)cc1 (configuration not stated) -8.87%, CCOc1ccc(CN2CCN(CC(O)Cn3c4ccccc4c4ccccc43)CC2)cc1 (configuration not stated) -11.2%, O=S(=O)(c1ccc(Cl)c(Cl)c1)c1snnc1-c1ccccc1 -16.6%, CCC(=O)Nc1cccc(-n2nnnc2SCC(=O)c2ccc(C)c(C)c2)c1 -8.48%, CCC[C@@H]1C[C@@H](C(=O)N[C@H]([C@@H](C)O)[C@H]2O[C@H](SC)[C@H](O)[C@@H](O)C2O)N(C)C1 (some centres not stated) -18.3%, CC(C)CCn1c(-c2nonc2N)nc2ccccc21 -12.3%, CCn1c(C(=O)N2CCCC(C(=O)NCCc3ccc(C)cc3)C2)cc2sccc21 (configuration not stated) -4.94%, O=C(CCCn1c(SCC(=O)NCC2CCCO2)nc2ccccc2c1=O)NCc1ccccc1 (configuration not stated) -9.34%, COc1ccc(CC(=O)Nc2ccccc2C(=O)N2CCOCC2)cc1OC -2.83%, COc1ccc(CCNC(=S)Nc2cc(C)ccc2C)cc1 -14.2%

— PubChem BioAssay AID894 (National Center for Advancing Translational Sciences (NCATS), 2007)
